Source: the supplement of paper PMC10126150
Sequences with one replicate were seen in a single cluster, so their values are uncertain.

System: ATP
Assay: switch fluorescence ratio, 500 uM ATP over buffer (Cy3 cluster intensity, sum of 5 cycles each) (fold (ratio)); higher = stronger signal-on switching upon ATP binding; sequences stand for … in TCGTCGGCAGCGTCAGATGTGTATAAGAGACAGTTTTTTTTTTTTTTTTTTTTTTTTT…TC
Settings: aptamer strand: ATP DNA aptamer (quencher-CACCTGGGGGAGTATTGCGGAGGAAGG + anchor), 100 nM annealed; ATP concentration: 500 uM; one replicate
How it was run: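 Five buffer/ATP imaging cycles were run on Cy3-labelled switching-strand clusters on a modified Illumina MiSeq flow-cell, with NaOH stripping and re-annealing between cycles. In each cycle, clusters annealed to 100 nM quencher-labelled ATP aptamer were imaged in selection buffer, then after 15 min with 500 uM ATP at 22 °C. Per cluster, the fluorescence ratio is summed target-cycle over summed buffer-cycle Cy3 intensity, averaged per switch-domain sequence. Only clusters within 100-1000 RFU were kept.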
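Note: ATP exposure 15 min at 22 °C before imaging.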

Sequence	switch fluorescence ratio
TGCCTAAGGG	1.09
ATTTCCAGGA	1.01
AGTTTAATG	0.99
GGTTCGACAT	1.03
CAAACTGACA	1.09
GATTTTTG	0.997
GGCTGGCCTA	0.949
TATAGCCCTG	1.01
CTTATTAGGA	0.987
GGAACTCATC	1.06
GCGCGCTTAG	0.99
AGGTCGCTGT	0.937
AATAAGGCGT	1.04
TCACGGTCTA	1.07
GGTCACTGCC	1.07
AATCGTAGAA	1
GCTCCCACAA	3.41
CTGAACAGGT	0.967
ACCCGATCAC	1.23
CCTCAACATG	1.43
TCAACATGTC	1.03
CAATCTCCTA	1.11
TGACTTTA	0.996

Sequence	switch fluorescence ratio
AGTACTAGTA	0.992
GTAGTACCCA	0.999
TAGCACCTTT	1.02
CTAAGTATCG	1.02
AAGATATATG	1
AACGGAGTAT	1.03
GACTCTTTTA	1
CAGATCAAT	1.04
GCCCCTGGCT	1.04
TGGATTCATA	1.21
CAAATGGGCG	0.994
CGATCTTATA	0.964
CGTGAGGTGG	0.925
AAGAGGCAGT	1.02
TGGGGTTAC	1
GTGCTTATAT	1.03
TACACTCGCC	1.09
GCTCTACTTT	1.01
TTGTCGGGAT	1.03
CTAACAGATC	0.964
TACGGGTCTG	1
GAGATCAGTG	1.02
TTCCATGGAG	0.977

Sequence	switch fluorescence ratio
CCCGGAGACT	1.19
GTACTCTTT	0.993
ACCGTACCGT	1.5
GCGGGCGGTG	1.04
ACAGTGGTGT	1.15
CAGGAGGTGC	1.11
GGGCGACCCA	1.05
TTAGTAGTCA	0.989
TCGTCGGATT	0.966
TACCAGGTTG	1.45
TTATAGTGGA	0.999
ACCTTCTCA	1.19
GCTTTCAGTA	0.97
CGGCTCTGC	0.989
CAACAAGGTT	0.993
ACTGGGAATT	1.01
CGCCCGCTGG	1.37
AGTTTATTAA	0.992
GATGTCCAC	1.03
TAAAGCAAAG	1.09
TATAGTCCTT	0.993
CCCTTGTTAA	1.26
AGGGTATTCC	0.987

Sequence	switch fluorescence ratio
TAGAGGTT	0.944
AGTTAAGAC	1.08
GAAGAATTTT	1.01
CCTTCAAGA	1.85
ACAGGCGTGT	1.03
TAGTCTCCTT	1.01
GGCCAACTTT	0.995
TTCAGTGCCT	0.962
GGAGTGCGCT	1.02
TTCCCTTGAA	1.02
TCACTATATC	1.09
ATGGGTAGCG	1.16
GCATGTTATT	1
GAAAAGCCGC	1.08
TGGTACTGAT	1.06
GGATTCTGGT	1.15
GGTCGAATGG	1.02
CATAGGAAAG	1
GCCGTATTTC	1.02
CTTTGGAGGG	1
ACGTTTAGCT	1.08
AGTGCAATTA	1.08
CCGCTCAATC	4.86

Sequence	switch fluorescence ratio
AACCGCGAAG	1.05
GGCGCCTGAA	1
GGTGCTGTGA	1.01
CTAGGACTAC	1.1
TGTGCTGCC	1.05
GATAAGTC	1.09
GATAAAGGAT	0.95
CCCCGAACGG	1.06
AACGAAGCGT	1.03
ATAGTGTGAA	0.942
TAAGACGG	0.988
GATTAGTTAG	0.951
TTATACCGCG	1.04
TCAATGGGCG	0.951
TAGGTAAAAG	0.946
TCTGCTAGCA	1.02
GGTTCAACCT	1.13
CAACCGTACA	1.51
GCTTTGGGTT	0.988
GTGCTGCAAC	1.08
GTACTGTACG	1.29
TCGGCCCGCC	1
GTTTGCTCCA	0.988

Sequence	switch fluorescence ratio
ACTCCTCTCC	1.82
GTTTCCTTCT	1.17
ATCGGAAGAG	0.976
GTTGCGCTT	0.964
TGATCCAGAT	0.959
TTGGGATCT	1.03
ACTCGGTTCC	1.07
GCGTCTCGAT	0.96
TGTGAGCGGA	0.996
GCTATACCCT	1.24
CCTGTAAGGG	0.987
TGGAATTCCA	1.02
ATTAACAAGC	1.02
AACGACGTGG	0.976
ATATCATAGC	1
ACTAGTGCTA	1.02
TACTGAAAT	1.06
TTCTCTCCTG	1.02
GACTCCCGT	1.13
TTGTAATACC	1.21
CGCATGCGTG	1.04
AACAGGGAGT	0.972
GATTGAAGGT	0.972

Sequence	switch fluorescence ratio
GTGGACGGAT	1.01
GCGACGGGTC	1.07
CAGGGAGGCT	0.96
GGTCTAGTTG	1.03
GAAGTGCCTG	0.985
ACCAGGTTGC	1.6
GGCAACCG	0.977
TGTGACTTGA	1.03
TCGGGCTTAG	1.02
GCGCCACCTA	1.01
CTTGCGAAT	0.991
TGCTTTATAA	1.03
CTTTGGAAA	0.944
CGGGGGCCTT	1.02
TAACCTTTCC	3.3
GCATTAGTGG	0.984
TGCCAGCGAA	1
CCCCGGATTG	1.64
GCAGACTGTT	0.958
AACGGCGGTA	0.994
